This note sets out measurements from paper PMC12136788.

This is one part of the list.

T1: UNK ZnF1-3 (human, UniProt Q9C0B0 31-174)
T1 sequence: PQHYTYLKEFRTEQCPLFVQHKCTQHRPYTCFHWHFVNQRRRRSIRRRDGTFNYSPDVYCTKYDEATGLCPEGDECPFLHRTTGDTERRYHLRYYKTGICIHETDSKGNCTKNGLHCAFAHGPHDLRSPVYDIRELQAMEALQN

B1: 32428398_32428518_72_5pUTR_ENSMUSG00000027668_ENSMUST00000091257|mouse|control|control (ssRNA)
RNA: GGGAGUUCUACAGUCCGACGAUCAGGUCACCCCGGACGUCGCCACCCGCCAGCGGACACUCACUCCGUCCCUGCUCCCCACUGUCACCCAGCAACCACAGCUCCGCCACAGCCCCCUGGCUGUCUCAUCCUCCCGAAAGAGGGCAACAGAGGAUUGAGCAUCA
B2: chr2:47387409:47387410:-_ENSG00000143933_ENST00000272298|hu_mus|motif|central (ssRNA)
RNA: GGGAGUUCUACAGUCCGACGAUCCAACUUGGAAUGGAUUUGAGGCAAGUUGUGCCAUGAGCAGGUUUUCUUUAAGUGGCGGAACAAAGUUUAAAAAGCAAGUAACAAUAAAAGAAAAUGUUCCUGGUACAAUACCAGCAGUACCAACAGAGGAUUGAGCAUCA
B3: chrX:140365796:140365797:-_ENSMUSG00000031285_ENSMUST00000033642|mus_mus|mus_mus_mus_hu_False|1_28 (ssRNA)
RNA: GGGAGUUCUACAGUCCGACGAUCCUUCUCAUUACUCAGUGCCUGCAAGGUUCUGGUUCGGUAGAAGCUACAGUGGGCGCUGUGAGUGGGGCUAGGCAACCCAUUCAUCCGUGACCCUCGCAUGUUCCUGGAUGUCUUGUCUCGCAACAGAGGAUUGAGCAUCA
B4: chr8:104447970:104447971:+_ENSG00000164934_ENST00000297579|hu_hu|hu_hu_hu_mus_False|18_48 (ssRNA)
RNA: GGGAGUUCUACAGUCCGACGAUCAUACACUUCCCUGCUUCGGCUCUUGUCCACAGGAAAGAUUCUAAUAGACUUAUCAAAGCUGGCAGACACAAACUCCUUCCCAGUGGGAGAGUAAUCCACAUCAAGUACUGCAGACACGUGCAACAGAGGAUUGAGCAUCA
B5: chrX:71549400:71549401:+_ENSMUSG00000019087_ENSMUST00000019231|mus_hu|mus_mus_mus_hu_False|18_18 (ssRNA)
RNA: GGGAGUUCUACAGUCCGACGAUCGCAGUAGGAAGAGGGAAGCUCUUCAGUCCAGUGCGCUGCAGGGUGGGAAAGCAACAACACGGACACCGUCCCACCCUCAACCCCCCCACUGGCAUGUCACACAACAAUCUGGGUCAAAGACAACAGAGGAUUGAGCAUCA
B6: chr19:45826695:45826696:-_ENSMUSG00000025220_ENSMUST00000026243|mus_hu|motif|central (ssRNA)
RNA: GGGAGUUCUACAGUCCGACGAUCACCAAGUAUAACCACAUCCUUUGGAAAUCCUUCCAUUUUUGCAAUUUCAAAACAUCCGGACUUGCUGUAAAAUUCCAGAAUUCUUUUAUCAUCUGGUCUCACUUCACAGAAAGCUCCCCGCAACAGAGGAUUGAGCAUCA
B7: chr2:78760142:78760143:+_ENSMUSG00000027011_ENSMUST00000028398|mus_mus|motif|central (ssRNA)
RNA: GGGAGUUCUACAGUCCGACGAUCGGUCCACUGUCUGGCUAUCCUGUCAUGUUCUGCUCUGUUGGUCAAAUACUGAGUGGCGGUGCUUCCGACCAGAGGAUCCGCAGGGUUGCAAUCUGUCAAAAGGGAACAAAUAGAGAGCAACAACAGAGGAUUGAGCAUCA
B8: chr2:216981417:216981418:+_ENSG00000079246_ENST00000392132|hu_hu|hu_hu_hu_mus_True|1_68 (ssRNA)
RNA: GGGAGUUCUACAGUCCGACGAUCCUGAUACUGGUCCUUGCCAGCAAGGGCAUUAUCAGUGCCAUCUGUACCAAACAGGACUAACGCAAUCUCAUCUUUGCUCUCCGAAAAUACCUGUCGUUGGACAAACAUAGUCAUCACCUUCAACAGAGGAUUGAGCAUCA
B9: chr11:51804959:51804960:-_ENSMUSG00000020390_ENSMUST00000020657|perfect_dup|motif|central (ssRNA)
RNA: GGGAGUUCUACAGUCCGACGAUCAUUUUGGAUAAAAACCUAACAGUUGGUGGUUUAUUUGGAUAUUCUUCAGAAAAUUCGGUUACGGGUUUAAAAGUACCAUCUUCAAAAGGUGUCCCUUCUGGUCCAAAUAUAACUGCAUUCCAACAGAGGAUUGAGCAUCA
B10: chr7:65705844:65705845:+_ENSG00000169902_ENST00000304842|hu_hu|FALSE|FALSE (ssRNA)
RNA: GGGAGUUCUACAGUCCGACGAUCAAAAGGAUCUUUAUUACAUAAAUAAGGGGCUGGCUCCCCAUGCUUAACGAUAAUUUCUAGUAAGAAGGCUUGCAUGGCAGAAUCCAGCACUUCAUCAGUAACACCAGCCUCAUCCAGGCGCAACAGAGGAUUGAGCAUCA
B11: chr1:39494564:39494565:+_ENSG00000168653_ENST00000372967|hu_hu|hu_hu_hu_mus_True|8_78 (ssRNA)
RNA: GGGAGUUCUACAGUCCGACGAUCAUGCAUUCGCCUCAUCGUUUUGUACCGAAGCAAACACUCUACGAAGUCAUCGAACUCUAUCUUGCACUCCUUUUUCGCCCGGGUCCCACCGAUCCCGUGUGCACAUUCUAUCCACUCUUUCAACAGAGGAUUGAGCAUCA
B12: 123332865_123334832_1155_CDS_ENSG00000106299_ENST00000223023|human|control|control (ssRNA)
RNA: GGGAGUUCUACAGUCCGACGAUCUGGAGGGGGAGGAGGAGGAGGUGGCCCUCCCCUUGAUGGUGGUGGAGGUGGUGGUGCUUGCCUCCGCAGUUCAUUUUUAACAGCUUCAACACCUCCUGUUUUUUCAAUAAAGUCAUAUAUCAACAGAGGAUUGAGCAUCA
B13: chr2:104521139:104521140:-_ENSMUSG00000027175_ENSMUST00000111118|mus_mus|motif|central (ssRNA)
RNA: GGGAGUUCUACAGUCCGACGAUCGAUGCGGGAGAUCAACCCCGGGGCCUCGUGCAGGCUAGGCGAUCACUGGCCACUGUACGGCAUACAAGUUGACAAAACAAGCUUUUAAAAAUCAAGUUCUAUCCAUUGGGUAUGGUGGCACAACAGAGGAUUGAGCAUCA
B14: chr1:180251892:180251893:+_ENSMUSG00000026500_ENSMUST00000027781|mus_hu|FALSE|FALSE (ssRNA)
RNA: GGGAGUUCUACAGUCCGACGAUCUGAACCAUACAAUAUUGAAUGCCGGGCGCAGGGAGUAUUUUCAACAUCUAAAAAUCCUAGGAGCUUAAGGGACUUCCAAUAUGAUAAAUGUAACGACGUACAAGAUGCCUUCCUCUCCUCCAACAGAGGAUUGAGCAUCA
B15: chr4:17841332:17841333:+_ENSG00000109805_ENST00000514176|hu_mus|FALSE|FALSE (ssRNA)
RNA: GGGAGUUCUACAGUCCGACGAUCUUUUGUAUAAACCCGAUUUUCUGGUGAGCAUGGACUUGUUAAGAUCUCAUUGCAAAUUUUUAUAGCCAAGUUGUCAUGUACUGUUAAGGCCUGAUAAUCCUGAGAAUUCUUUGCCUUAGGCAACAGAGGAUUGAGCAUCA
B16: 197150131_197157425_1671_CDS_ENSG00000177888_ENST00000367405|human|control|control (ssRNA)
RNA: GGGAGUUCUACAGUCCGACGAUCUUUUCCACAGAUAAAGCAAGUCCAUUUUCUCUUUCCACCAUGAGUACAUUCUAUAUGACGUUUCAAAUUUCCAGUGUCGUUAAACUGGCGACCACAUAUAUCACAUGGAAAAGGACCCAGCAACAGAGGAUUGAGCAUCA
B17: chr1:109605286:109605287:-_ENSG00000197780_ENST00000461096|hu_mus|hu_hu_hu_mus_True|1_38 (ssRNA)
RNA: GGGAGUUCUACAGUCCGACGAUCAAGUUUCAGAGUAACAUUCAGUAACCUCUUUAAAUGCAAUUAUCCUUAUUAUAAGCUAAGCAGAAUAAUAAUUUAAUACAUAGAGUGAACUACACACAAAGCCUGAACCGCGAAACUACACAACAGAGGAUUGAGCAUCA
B18: chr4:76721835:76721836:+_ENSG00000138768_ENST00000264904|hu_mus|hu_hu_hu_mus_True|28_38 (ssRNA)
RNA: GGGAGUUCUACAGUCCGACGAUCGUUUGGCUGGGGUUUCUGAGACGCUCUGGAAUAUAACUCAUGUUUGCUAAUAAAUCCUAGUUUCUCUAUGAAAUCUCUUUGCCAAUCCUCUUCCUCUAUUAGUUGCUUUAGUUUCUCUUUCAACAGAGGAUUGAGCAUCA
B19: chr12:48362563:48362564:+_ENSG00000134291_ENST00000256686|hu_hu|hu_hu_hu_mus_False|38_98 (ssRNA)
RNA: GGGAGUUCUACAGUCCGACGAUCUCCGUCAAGCCCUUCAAGCCCCACUUGCGGGGGAAACUGUAAUCACUUUGUAUGGGGAAGGAAAAGAAACGCCAACACACUUUCAAAAAGCGGGGGUGGGGUGAGGCGGGAGGGGGAGGUCAACAGAGGAUUGAGCAUCA
B20: chr6:109703465:109703466:-_ENSG00000135535_ENST00000310786|hu_hu|FALSE|FALSE (ssRNA)
RNA: GGGAGUUCUACAGUCCGACGAUCAGUGGUGACCAGCGGGAGGGACGUCACCGGCGCCGAGGUUACGUUGGAGAUGGGCGCUAAAGUCGUCACGUUCGGGUGCUGGGUCGUGUUCUUGUCCGCGGACAGCACGCAGAGCACGCCCAACAGAGGAUUGAGCAUCA
B21: chr2:78758850:78758851:+_ENSMUSG00000027011_ENSMUST00000028398|mus_mus|FALSE|FALSE (ssRNA)
RNA: GGGAGUUCUACAGUCCGACGAUCAUCCAGGCAGAUGACUCCCUGACUGUUGAUGUUGCAGUGAUAGAUUCUGGUACGGAAAGUAACCUUUGGUGGCUUAAAUGGAUAAUCUGAAGAAAAUGUGAUAUCCAGAAAAAAAACACCCAACAGAGGAUUGAGCAUCA
B22: chr4:148551591:148551592:-_ENSMUSG00000063077_ENSMUST00000060537|mus_hu|mus_mus_mus_hu_False|1_18 (ssRNA)
RNA: GGGAGUUCUACAGUCCGACGAUCACCUGACAAAAUUAAAUAUCCCUGUAAAUUAGACAAUAAGCAGCAGGCAACAAAGUCUUUGCUUUGGAAUAUGUGCCAGGAAAAGUCAUCUUGUAGACCCCAAUCAAGAGACACAACCAUCAACAGAGGAUUGAGCAUCA

This experiment has as its target T1, UNK ZnF1-3. In words: nsRBNS (natural sequence RNA bind-n-seq); RBNS binding buffer (assumed for nsRBNS): 25 mM Tris pH 7.5, 150 mM KCl, 3 mM MgCl2, 0.01% Triton X-100, 500 ug/ml BSA, 20 U/ml SUPERase-In, 4 C; UNK is unkempt and MSI1 is Musashi-1; names of the RNAs are library labels; protein concentration not given here; high values mean tight binding.
Consider B1, for which the binding signal stood at 1.48 enrichment R.

B2: the binding signal was 1.61 enrichment R.

Consider B3, for which the binding signal is 0.504 enrichment R.

Regarding B4, the binding signal amounted to 1.04 enrichment R.

As to B5, the binding signal was found to be 1.35 enrichment R.

B6 returned a binding signal of 0.696 enrichment R.

B7 returned a binding signal of 1.65 enrichment R.

B8: the binding signal came to 0.71 enrichment R.

Turning to B9, the binding signal is 0.829 enrichment R.

B10 gave a binding signal of 0.786 enrichment R.

As for B11, the binding signal was 0.657 enrichment R.

The molecule B12 yielded a binding signal of 1.02 enrichment R.

B13 showed a binding signal of 0.967 enrichment R.

B14 returned a binding signal of 1.9 enrichment R.

Turning to B15, the binding signal was 0.762 enrichment R.

B16: the binding signal came to 1.2 enrichment R.

In turn, B17 gave a binding signal of 0.664 enrichment R.

For the molecule B18, the binding signal came to 0.455 enrichment R.

With B19, the binding signal is 2.31 enrichment R.

B20 yielded a binding signal of 0.53 enrichment R.

For B21, the binding signal amounted to 1.38 enrichment R.

In turn, B22 had a binding signal of 1.7 enrichment R.
